# Experimental data: patent publication US11020404B2, “Use of CDK9 and BRD4 inhibitors to inhibit inflammation” (THE REGENTS OF THE UNIVERSITY OF CALIFORNIA, priority 2014, dated 2021)
# Experiments:
# [1] = system: bovine cartilage explants; test: Single impact injury of bovine cartilage explants, mRNA by quantitative real-time PCR; format: cell-based; details: first 24 hours after mechanical injury
# From the text: Cartilage explants—Bovine calf (˜2 months old, n=40 joints, sex unknown) stifle joints were obtained from a local slaughterhouse (Petaluma, Calif.) within 1 day of slaughtering. 6-8 cylindrical cartilage explants were harvested from each femoral condyle with a 6 mm biopsy punch inserted perpendicular to the weight bearing area of the articular surface. The explants were then trimmed into ˜3 mm thickness (with the articular surface intact and the deep layer cut flat) using a custom jig. The explants were washed with phosphate buffered saline and cultured for 24 hours in high-glucose Dulbecco's Modified Eagle's Medium (DMEM) supplemented with 10% fetal bovine serum (Invitrogen), penicillin (1×10^4 units/ml) and streptomycin (1×10^4 μg/ml) at 37° C., 5% CO2, and 95% relative humidity.
# At 2-, 6-, and 24-hours post-injury, the explants were frozen in liquid nitrogen and pulverized with a pestle and mortar while frozen. […] The quantity and quality of the total RNA were determined by a Nanodrop-2000 spectrophometer. […] Individual mRNA expression was determined with quantitative real-time PCR performed in triplicates in a 7900HT system (Applied Biosystem). Results were normalized to the 18s rRNA (catalog no. 4319413E, Applied Biosystem) and calculated as fold-change in mRNA expression relative to control, using the 2^−ΔΔCT method. […]
# [2] = system: iNOS induction in human primary chondrocytes; details: Yik et al. 2014; cited from earlier work
# [3] = system: synovial hyperplasia / rheumatoid arthritis; details: cited from earlier work
# [4] = system: chondrocytes in bovine cartilage explants; test: Chondrocyte viability by Live/Dead stain in cartilage explants; details: 5 days
# [5] = system: IL-1β-induced genes in primary human chondrocytes; test: Microarray of IL-1β-induced genes in primary human chondrocytes; details: Flavopiridol alone
# [6] = system: iNOS induction in human primary chondrocytes; test: iNOS mRNA induction by different inflammatory stimuli in human primary chondrocytes; details: FIG. 5C
# [7] = system: IL-1β-induced iNOS transcription in primary chondrocytes; test: Primary human chondrocytes stimulated with IL-1β or TNF-α, qRT-PCR of inflammatory and catabolic genes; design-of-experiment for minimal drug dose; details: for repression of a panel of pro-inflammatory and catabolic genes: 10 ng/ml IL-1β or TNF-α, 5 hours; for minimal dose in combined treatment to achieve complete repression of IL-1β response: combined Flavopiridol + JQ1, healthy human chondrocytes, 4 donors, DOE; for dosage for single treatment: each drug alone, IL-1β response
Structure (SMILES),adverse side effects on anabolic gene expression [1],induction of mRNA of other inflammatory cytokines and catabolic genes such as MMPs by the four stimuli [2],synovial hyperplasia ([3]; mouse models of rheumatoid arthritis),"rheumatoid arthritis ([3]; mouse models, effect reversible on stopping treatment)",cell survival in uninjured explants (live/dead stain) [4],share of the 873 IL-1β-induced genes not suppressed at all [5],share of the 873 IL-1β-induced genes suppressed to at least 75% less than maximum induction [5],inflammatory response induced by IL-6 [6],repression of a panel of pro-inflammatory and catabolic genes [7],minimal dose in combined treatment to achieve complete repression of IL-1β response [7],dosage for single treatment [7]
"CN1CC[C@H](c2c(O)cc(O)c3c(=O)cc(-c4ccccc4Cl)oc23)[C@H](O)C1 [Flavopiridol, 2-(2-chlorophenyl)-5,7-dihydroxy-8-[(3S,4R)-3-hydroxy-1-methyl-4-piperidinyl]-4-chromenone]",no adverse side effects,suppressed,reduced,effectively prevented,did not significantly affect cell survival,~5%,nearly half,suppress,effectively repressed,60 nM,250 nM
Cc1sc2c(c1C)C(c1ccc(Cl)cc1)=N[C@@H](CC(=O)OC(C)(C)C)c1nnc(C)n1-2 [JQ1],,,,,,,,suppress,effectively repressed,250 nM,1200 nM
